{"source": "PubChem BioAssay (NCATS)", "note": "Results filed as inconclusive are left out. Calls follow the shape of the dose curve; as a rule, active = well fitted curve in the direction sought with a large enough effect; inconclusive = small, poorly fitted or top-dose-only effect, or another doubt; inactive = no such curve, though single readings can be large; an effect the other way counts as inactive or inconclusive. The source holds several records for some structures; these can differ, active in one and inactive in another. Not every entry of the source has a single result; some have several. They are shown here; other results are not. There may be further records. The values listed for one entry repeat one measurement in other runs, samples, wells, individuals or studies. Brackets tell where a record comes from. Letters hold for one entry only. Potency is read from the fitted curve at half-maximal effect.", "data": [{"assay": "qHTS of pediatric cancer cell lines to identify multiple opportunities for drug repurposing: Primary screen for NB1643 cells (AID 1347099); also: nearly all actives have a fitted effect of over 50% in size", "settings": "NB1643 neuroblastoma viability, CellTiter-Glo luminescence, 48 h; series mostly up to 46 µM", "values": [{"smiles": "CN(C)CCOC(c1ccccc1)c1ccccc1", "Potency": "active: 16.6 µM [sample A] and inactive [sample B]"}, {"smiles": "CC12CC3CC(C)(C1)CC(N)(C3)C2", "Potency": "active: 10.5 µM [sample A] and inactive [sample B]"}, {"smiles": "COc1ccc2c(c1)c(CC(=O)O)c(C)n2C(=O)c1ccc(Cl)cc1", "Potency": "inactive [sample A] and active: 16.6 µM [sample B]"}, {"smiles": "CC(C(=O)O)c1cccc(C(=O)c2ccccc2)c1", "note": "(stereo unspecified)", "Potency": "inactive [sample A] and active: 18.7 µM [sample B]"}, {"smiles": "CN(C)CCCN1c2ccccc2CCc2ccc(Cl)cc21", "Potency": "active: 1.66 µM [sample A] and inactive [sample B]"}, {"smiles": "CCC1(c2ccccc2)C(=O)NCNC1=O", "Potency": "active: 8.33 µM [sample A] and inactive [sample B]"}, {"smiles": "CC(C)NCC(O)c1ccc(O)c(O)c1", "note": "(stereo unspecified)", "Potency": "active: 1.32 µM [sample A] and inactive [sample B]"}, {"smiles": "CC1COc2c(N3CCN(C)CC3)c(F)cc3c(=O)c(C(=O)O)cn1c23", "note": "(stereo unspecified)", "Potency": "inactive [sample A] and active: 4.69 µM [sample B]"}, {"smiles": "CC(C)C(=O)Nc1ccc([N+](=O)[O-])c(C(F)(F)F)c1", "Potency": "inactive [sample A] and active: 5.9 µM [sample B]"}]}, {"assay": "qHTS of pediatric cancer cell lines to identify multiple opportunities for drug repurposing: Primary screen for LAN-5 cells (AID 1347100)", "settings": "LAN-5 neuroblastoma viability, CellTiter-Glo luminescence, 48 h; series mostly up to 46 µM", "method_in_brief": "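Cells (500-1,000/well) in growth media were settled 5 h at 37 degrees C, then given compounds for 48 h. Viability was read as CellTiter-Glo luminescence. Primary runs used MIPE at 11 points (0.78 nM-46 µM) and NPC at 8 points (0.59 nM-46 µM); follow-ups used 11 points.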", "values": [{"smiles": "CC(C)(Oc1ccc(C2CC2(Cl)Cl)cc1)C(=O)O", "note": "(stereo unspecified)", "Potency": "active: 17.1 µM [sample A] and inactive [sample B]"}, {"smiles": "Cn1cnc2c1c(=O)[nH]c(=O)n2C", "Potency": "inactive [sample A] and active: 26.4 µM [sample B]"}, {"smiles": "CN(C)CCCN1c2ccccc2CCc2ccc(Cl)cc21", "Potency": "active: 9.35 µM [sample A] and inactive [sample B]"}, {"smiles": "CC(C)NCC(O)c1ccc(O)c(O)c1", "note": "(stereo unspecified)", "Potency": "active: 6.62 µM [sample A] and inactive [sample B]"}]}, {"assay": "qHTS of pediatric cancer cell lines to identify multiple opportunities for drug repurposing: Primary screen for BT-12 cells (AID 1347101); also: nearly all actives have a fitted effect of over 25% in size", "settings": "BT-12 viability, CellTiter-Glo luminescence, 48 h; series mostly up to 57.3 µM", "method_in_brief": "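Cells (500-1,000/well) rested 5 h, then received compounds for 48 h; metabolically active cells were measured by CellTiter-Glo luminescence. Final concentrations spanned up to 46 µM (MIPE, 11-point) or 0.59 nM-46 µM (NPC, 8-point) in primary screens, 11-point in follow-ups.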", "values": [{"smiles": "Cn1cnc2c1c(=O)[nH]c(=O)n2C", "Potency": "inactive [sample A] and active: 24.3 µM [sample B]"}, {"smiles": "Nc1nc2c(ncn2COC(CO)CO)c(=O)[nH]1", "Potency": "active: 24.3 µM [sample A] and inactive [sample B]"}, {"smiles": "NC(=O)NO", "Potency": "inactive [sample A] and active: 1.72 µM [sample B]"}]}]}
